Measurements published in ChEMBL document CHEMBL1201862, “PubChem BioAssay data set” (2004).
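A five-concentration, 48-hour dose response in 96-well plates underlies each endpoint, interpolated linearly between surrounding concentrations. The concentration for 50% growth inhibition is given as GI50.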 The source made the active and inactive calls. Rule as the data show it: active = GI50 up to about 1.1 µM and inactive = higher.

Tested on: NCI-H322M
Test: NCI tumour cell line growth inhibition, 48 h

| SMILES | GI50 |
| --- | --- |
| CC(=O)Nc1ccc2[nH]c(C(=O)N3CC(CCl)c4c3cc(N)c3ccccc43)cc2c1 (centres undefined) | active: < 0.0211 µM |
| COc1ccc(NCc2c(O)ccc3ccccc23)cc1 | inactive: > 100 µM |
| Sc1nnc(SCc2ccccc2Cl)c2nc[nH]c12 | inactive: > 100 µM |
| O=C1OC2(c3ccc(O)cc3Oc3cc(O)ccc32)c2c1c(-c1ccccc1)c(-c1ccccc1)c(-c1ccccc1)c2-c1ccccc1 | inactive: 21 µM |
| COc1ccccc1-c1cc(O)c2cc3c(cc2n1)OCO3 | inactive: 53.7 µM |
| O=C(O)/C(Cc1c[nH]nn1)=N\O | inactive: > 100 µM |
| CCC(C)C(=O)O[C@H]1C(=O)O[C@@H]2C[C@H]3C(C)=CC(=O)[C@@H](O)[C@]3(C)[C@H]3[C@@H](O)[C@H](O)[C@@]4(C)OC[C@]32[C@@H]14 (some centres undefined) | active: < 0.0506 µM |
| CC1C(c2ccc3c(c2)OCO3)c2cc3c(cc2OC1N1CCOCC1)OCO3 (centres undefined) | inactive: 47.6 µM |
| COc1cc(C2c3cc4c(cc3OC(NNC(N)=S)C2C)OCO4)cc(OC)c1OC (centres undefined) | active: 0.497 µM |
| CCOC(=O)C1=C(OC(OCC)C([Se]c2ccccc2)C(C)C)CCC1 (centres undefined) | inactive: 60.8 µM |
| CC(NC(=O)c1ccccc1)NC(=O)C(C)C(=O)Nc1ccccc1 (centres undefined) | inactive: > 100 µM |
| O=c1[nH][nH]c(=O)n1Cc1ccccc1Cn1c(=O)[nH][nH]c1=O | inactive: > 100 µM |
| CC(C)(C)OC(=O)N1N=CCC1c1ccccc1 (centres undefined) | inactive: > 100 µM |
| CSCCC(NC(=O)Cc1ccc(C(=O)c2ccccc2)cc1)C(=O)O (centres undefined) | inactive: > 100 µM |
| CCNC1=C(NC(=O)c2ccc(F)cc2)C(=O)c2ccccc2C1=O | inactive: > 100 µM |
| Cc1ccc(/N=C2N=C(Cl)/C(=C\c3ccccc3)N\2)cc1 | inactive: > 100 µM |
| COc1ccc(-c2nc(-c3cc4ccccc4oc3=O)cs2)cc1 | inactive: 36.1 µM |
| CC(=O)NNc1nc(C)c(C(=O)NNC(=O)C(=O)Nc2c(C)cccc2C(C)C)s1 | inactive: > 100 µM |
| COc1cc([C@@H]2c3cc4c(cc3[C@@H](NC(=O)c3cccc(N)c3)C3COC(=O)[C@@H]32)OCO4)cc(OC)c1O (some centres undefined) | inactive: 10.2 µM |
| O=S(=O)(O)c1cc(Cl)c(O)c2ncc(Cl)cc12 | inactive: 50.1 µM |
| CSC(=O)/C=C1\SS/C(=C\C(=O)SC)S1 | inactive: 8.63 µM |
| Cc1ccc(C(=O)C#Cc2cn(C3CC(O)C(CO)O3)c(=O)[nH]c2=O)cc1 (centres undefined) | inactive: > 100 µM |
| CO/C(=C/C(=O)C(Cl)(Cl)Cl)CC/C(=C\C(=O)C(Cl)(Cl)Cl)OC | inactive: 29.7 µM |

| SMILES | GI50 |
| --- | --- |
| CC(=O)c1ccc(OCC(O)CO)cc1 (centres undefined) | inactive: > 100 µM |
| COc1cccc(NC(=O)C(C#N)=C(SC)SC)c1 | inactive: 74 µM |
| CC1=NC(C)(C)[N+]([O-])=C1 | inactive: > 10 µM |
| Clc1ccc(C2=NOC3C4CCC(C4)C23)cc1 (centres undefined) | inactive: > 100 µM |
| O=C(c1ccco1)n1c2ccc(Br)cc2c2nc3ccccc3nc21 | inactive: 53.5 µM |
| CC1=C(C(=O)NCCCN(CCO)CCO)CC(C(=O)NCCCN(CCO)CCO)=C(C)N1 | inactive: > 100 µM |
| O=S1(=O)N=C(SCc2ccccc2)N(c2ccccc2)c2ccncc21 | inactive: 45.5 µM |
| Cn1c2ccccc2n2c3ccccc3c3nnc(N)c-3c12 | inactive: 23.5 µM |
| Cc1ccc([N+](=O)[O-])cc1NC(=O)c1cccc([N+](=O)[O-])c1O | inactive: 8.65 µM |
| O=C(CCC(=O)Nc1ccc(Cl)c(Cl)c1)Cc1nc2ccccc2o1 | inactive: > 100 µM |
| C[C@@H]1OC(=O)/C(=C\N(C)C)[C@H]2CC(=O)N(CCc3cn(S(=O)(=O)C(F)(F)F)c4ccccc34)C[C@H]12 | inactive: > 100 µM |
| COc1cc(C(=O)O[C@@H]2[C@@H](OC(=O)c3cc(OC)c(OC)c(OC)c3)[C@@H](OC)O[C@@H]3CO[C@@H](c4ccccc4)O[C@@H]23)cc(OC)c1OC | inactive: > 100 µM |
| CN(C)C(=N)NC(=S)N(C)C | inactive: > 100 µM |
| CC(=O)Nc1ccc(C(=O)NN2C(=O)C(Cl)C2c2cc(Br)cc(Br)c2O)cc1 (centres undefined) | inactive: > 100 µM |
| O=C1C=CC(=O)C12CCc1ccccc12 | inactive: > 100 µM |
| Cc1nc(-c2ccc([N+](=O)[O-])cc2)cn2c1nc1ccccc12 | inactive: > 100 µM |
| CCOC(=O)[C@@H]1ON2OC(OC3CCCC3(c3ccccc3)c3ccccc3)C(OC(C)=O)[C@H]3OC(=O)[C@@H]1C32 (some centres undefined) | inactive: > 100 µM |
| C=C(C)C(=O)O[C@H]1[C@H]2[C@H](OC(=O)[C@H]2C)[C@H](O)[C@@H](C)[C@@H]2C=CC(=O)[C@]21C | inactive: 3.03 µM |
| C[C@@H](NC(=O)OC1C=CC2(CC1)C(=O)N(C)c1ccccc12)c1cccc2ccccc12 (some centres undefined) | inactive: > 25 µM |
| O=C1OC2(CC1C1(O)C3CC4CC(C3)CC1C4)C1CC3CC(C1)CC2C3 (centres undefined) | inactive: 21.4 µM |
| CCOCC(=O)N[C@H]1CCc2cc(OC(=O)COCC)c(OC)c(OC)c2-c2ccc(SC)c(=O)cc21 | active: 0.0545 µM |
| COc1ccc(N2C(=O)/C(=C\c3cccc(Oc4ccccc4)c3)SC2c2ccccc2)cc1 (centres undefined) | inactive: > 100 µM |
| N#CCCN(CCNc1ccccc1)C(=O)Nc1ccc(NC(=O)N(CCC#N)CCNc2ccccc2)cc1 | inactive: > 88.3 µM |

| SMILES | GI50 |
| --- | --- |
| c1ccc(C2=NOC3C4CCC(C4)C23)cc1 (centres undefined) | inactive: > 100 µM |
| CN(c1ccc(C(=O)c2ccc(N(C)S(C)(=O)=O)cc2)cc1)S(C)(=O)=O | inactive: > 100 µM |
| Cc1cc(Cl)ccc1NC(=O)C1C(=O)N(c2ccc(Cl)cc2C)C(=O)/C1=N\NC(N)=S (centres undefined) | inactive: 36.6 µM |
| CS(=O)(=O)OCC(CCl)(CCl)CCl | inactive: > 100 µM |
| CN(NC(=O)/C(=C/C=C/c1ccccc1)NC(=O)c1ccccc1)C1=C(Cl)C(=O)[N+](c2ccccc2)=CC1 | inactive: 36.1 µM |
| N#CN=C(NCCO)NCCO | inactive: > 100 µM |
| CCCc1c[nH]c(-c2ccc(-c3cc(CCC)c(C=O)[nH]3)s2)c1 | inactive: 16.2 µM |
| CC(C)(C)C(=O)Nc1ccccc1Br | inactive: > 100 µM |
| Cn1c2c3ccc(Cl)cc3nc-2c(Cl)c2ccccc21 | inactive: 48.6 µM |
| CC(=O)O[C@H]1CC[C@H]2[C@@H]3CCC4=C/C(=N/OCCN(C)C)CC[C@]4(C)[C@H]3CC[C@]12C | inactive: 12.5 µM |
| O=CNc1ccc2c(c1)C(=O)c1ccccc1-2 | inactive: 64.6 µM |
| C=C1CCC2C(C)(CO)C(O)CCC2(C)C1CC(O)C1=CCOC1=O (centres undefined) | inactive: 49.3 µM |
| COC(=O)C(C(=O)C(=O)NC1=C(Cl)C(=O)c2ccccc2C1=O)c1csc(-n2nc(-c3ccccc3)cc2-c2ccccc2)n1 (centres undefined) | inactive: > 100 µM |
| S=C1CSc2c(cnc3ccccc23)N1 | inactive: > 100 µM |
| CC(=O)CCC[C@H](C)[C@@H](O)[C@@H]1O[C@H]([C@@]2(C)CCC(=O)O2)C[C@H]1C(=O)O | inactive: > 100 µM |
| S=c1ssc2c3ssc(=S)c3n(Cc3ccccc3)c12 | inactive: > 100 µM |
| COC(=O)C1(CCCCCBr)CCCCCCCCCCC1=O (centres undefined) | inactive: 25.8 µM |
| Cn1c2c([N+](=O)[O-])cccc2c(=O)c2c(O)cc3c(c21)C=CC(C)(C)O3 | inactive: 72.1 µM |
| CN(CCSCCN(C)C(=O)OC(C)(C)C)C(=O)OC(C)(C)C | inactive: > 100 µM |
| Cc1nc(C)c(N2CCN(CN)CC2)c(O)n1 | inactive: > 100 µM |
| Cc1ccc(/N=N/C(=N\NC(=O)c2ccc(C)cc2)c2ccc(N(CCC#N)CCC#N)cc2C)cc1 | inactive: 43.9 µM |
| O=C1CCN2c3ccccc3[C@H]3Cc4cccc(c4[C@@H]2C3)CCO1 | inactive: 97.1 µM |
| CN1CCN(/C(N)=C(\C#N)C(=O)Nc2ccccc2)CC1 | inactive: > 100 µM |

| SMILES | GI50 |
| --- | --- |
| C/C=C1\NC(=O)[C@H]2CSSCCC=C[C@H](CC(=O)N[C@H](C(C)C)C(=O)N2)OC(=O)[C@H](C(C)C)NC1=O | active: 0.000212 µM |
| O=C1c2cccc3cccc(c23)C(=O)N1CCCNCCCNCCCCNCCCNCCCN1C(=O)c2cccc3cccc(c23)C1=O | inactive: 2.88 µM |
| COc1ccc(C(=O)NCCC2CN(S(=O)(=O)C(F)(F)F)c3ccccc32)c(OC)c1 (centres undefined) | inactive: > 100 µM |
| CCOC(=O)Cn1nnc2cc(Nc3c(C)[n+]([O-])c4cc(F)c(OCC)cc4[n+]3[O-])ccc21 | inactive: > 100 µM |
| Cc1cc2nc3c(C#N)c(-c4ccccc4)cc(Nc4ccc(Cl)cc4)n3c2cc1C | inactive: > 100 µM |
| CC(=O)c1ccc(NC(=O)C(=O)C(C#N)CC(C)(C)C=O)cc1 (centres undefined) | inactive: > 100 µM |
| O=C1C=CC2(C=C1)C[C@H](NC(=O)C(F)(F)F)C(=O)O2 | inactive: > 100 µM |
| C=CCN1C(=O)/C(=C/c2cccs2)N=C1SC1OC(COC(=O)c2ccccc2)C(OC(=O)c2ccccc2)C1OC(=O)c1ccccc1 (centres undefined) | inactive: > 100 µM |
| C/C([O-])=C(/c1nc(-c2ccc([N+](=O)[O-])o2)no1)[n+]1cc(C)ccc1C | inactive: 14.4 µM |
| N#CC(C(=O)C(=O)C(C#N)c1ccc(Br)cc1)c1ccc(Br)cc1 (centres undefined) | inactive: 13.2 µM |
| O=C1c2cc(Cl)ccc2-n2cnnc2C2CSCN12 (centres undefined) | inactive: > 100 µM |
| O=C(NNC(c1ccccc1)C(F)(F)F)c1ccncc1 (centres undefined) | inactive: > 100 µM |
| Cc1cccc2oc3c(CC(=O)O)cccc3c(=O)c12 | inactive: > 100 µM |
| COC(=O)[C@@]12OC[C@]34C([C@@H](O)C1O)[C@@]1(C)CC(=O)C(OC(=O)CC(C)C(F)(F)F)=C(C)C1C[C@H]3OC(=O)[C@H](O)[C@H]42 (some centres undefined) | inactive: 22.2 µM |
| CC(=O)N/N=C1/CC[C@@]2(C)C(=CC[C@H]3C4CCC(C(C)CCCC(C)C)[C@@]4(C)CCC32)C1(C)C (some centres undefined) | inactive: > 100 µM |
| C[O+]=C1C=CC(=C2SC(c3ccccc3)(c3ccccc3)c3ccccc32)C=C1.[O-][Cl+3]([O-])([O-])[O-] | inactive: 25.6 µM |
| Oc1cc(-c2ccccc2)nc2cc3c(cc12)OCO3 | inactive: 11.7 µM |
| Cc1nc(-n2nc(-c3ccccc3)cc2-c2ccccc2)sc1C(=O)/C=C/c1ccc(Cl)c(Cl)c1 | inactive: 19.5 µM |
| COc1ccc(Nc2cc(O)nc(O)n2)cc1 | inactive: > 100 µM |
| O=C1Cc2c([nH]c3ccc(Br)cc23)-c2cc(Br)ccc2N1 | inactive: > 100 µM |
